# Source: the supplement of paper PMC8728848
# This is one part of the list.
# B1: Siglec-9 (Homo sapiens), Q9Y336 (protein)
# chain: MLLLLLPLLWGRERAEGQTSKLLTMQSSVTVQEGLCVHVPCSFSYPSHGWIYPGPVVHGYWFREGANTDQDAPVATNNPARAVWEETRDRFHLLGDPHTKNCTLSIRDARRSDAGRYFFKMEKGSIKWNYKHHRLSVNVTALTHRPNILIPGTLESGCPQNLTCSVPWACEQGTPPMISWIGTSVSPLDPSTTRSSVLTLIPQPQDHGTSLTCQVTFPGASVTTNKTVHLNVSYPPQNLTMTVFQGDGTVSTVLGNGSSLSLPEGQSLRLVCAVDAVDSNPPARLSLSWRGLTLCPSQPSNPGVLELPWVHLRDAAEFTCRAQNPLGSQQVYLNVSLQSKATSGVTQGVVGGAGATALVFLSFCVIFVVVRSCRKKSARPAAGVGDTGIEDANAVRGSASQGPLTEPWAEDSPPDQPPPASARSSVGEGELQYASLSFQMVKPWDSRGQEATDTEYSEIKIHR
# Legend:
# Test in all cases: glycan array binding signal (z-score within array); higher = stronger binding
# Settings in all cases: glycan notation: IUPAC condensed, linker removed; mutation: R120K
# [1] = target: Neu5Ac(a2-6)Gal(b1-4)GlcNAc(b1-2)Man(a1-3)[Man(a1-6)]Man(b1-4)GlcNAc(b1-4)GlcNAc
# Procedure, shortened: (§1)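 The Consortium for Functional Glycomics database supplied 3228 glycan arrays, of which those lacking an available protein sequence were dropped. The binding signal, a within-array Z-score, was averaged across arrays of the same protein sequence and across linkers. Negative scores can be read as non-binding.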
# [2] = target: Neu5Ac(a2-6)Gal(b1-4)GlcNAc(b1-2)Man(a1-3)[Neu5Ac(a2-3)Gal(b1-4)GlcNAc(b1-2)Man(a1-6)]Man(b1-4)GlcNAc(b1-4)GlcNAc
# Procedure, shortened: as §1
# [3] = target: Neu5Ac(a2-6)Gal(b1-4)GlcNAc(b1-2)Man(a1-3)[Neu5Ac(a2-6)Gal(b1-4)GlcNAc(b1-2)Man(a1-6)]Man(b1-4)GlcNAc(b1-4)GlcNAc
# Procedure, shortened: as §1
# [4] = target: Neu5Ac(a2-6)Gal(b1-4)GlcNAc(b1-2)Man(a1-3)[Neu5Ac(a2-6)Gal(b1-4)GlcNAc(b1-2)Man(a1-6)]Man(b1-4)GlcNAc(b1-4)[Fuc(a1-6)]GlcNAc
# Procedure, shortened: as §1
# [5] = target: Neu5Ac(a2-6)Gal(b1-4)GlcNAc(b1-2)Man(a1-6)Man(b1-4)GlcNAc(b1-4)GlcNAc
# Procedure, shortened: as §1
# [6] = target: Neu5Ac(a2-6)Gal(b1-4)GlcNAc(b1-2)Man(a1-6)[Gal(b1-4)GlcNAc(b1-2)Man(a1-3)]Man(b1-4)GlcNAc(b1-4)GlcNAc
# Procedure, shortened: as §1
# [7] = target: Neu5Ac(a2-6)Gal(b1-4)GlcNAc(b1-2)Man(a1-6)[GlcNAc(b1-2)Man(a1-3)]Man(b1-4)GlcNAc(b1-4)GlcNAc
# Procedure, shortened: as §1
# [8] = target: Neu5Ac(a2-6)Gal(b1-4)GlcNAc(b1-2)Man(a1-6)[Man(a1-3)]Man(b1-4)GlcNAc(b1-4)GlcNAc
# Procedure, shortened: as §1
# [9] = target: Neu5Ac(a2-6)Gal(b1-4)GlcNAc(b1-2)[Neu5Ac(a2-6)Gal(b1-4)GlcNAc(b1-4)]Man(a1-3)[GlcNAc(b1-4)][Neu5Ac(a2-6)Gal(b1-4)GlcNAc(b1-2)[Neu5Ac(a2-6)Gal(b1-4)GlcNAc(b1-6)]Man(a1-6)]Man(b1-4)GlcNAc(b1-4)GlcNAc
# Procedure, shortened: as §1
# [10] = target: Neu5Ac(a2-6)Gal(b1-4)GlcNAc(b1-2)[Neu5Ac(a2-6)Gal(b1-4)GlcNAc(b1-4)]Man(a1-3)[GlcNAc(b1-4)][Neu5Ac(a2-6)Gal(b1-4)GlcNAc(b1-4)Man(a1-6)]Man(b1-4)GlcNAc(b1-4)GlcNAc
# Procedure, shortened: as §1
# [11] = target: Neu5Ac(a2-6)Gal(b1-4)GlcNAc(b1-2)[Neu5Ac(a2-6)Gal(b1-4)GlcNAc(b1-6)]Man(a1-6)[Neu5Ac(a2-6)Gal(b1-4)GlcNAc(b1-2)Man(a1-3)][GlcNAc(b1-4)]Man(b1-4)GlcNAc(b1-4)GlcNAc
# Procedure, shortened: as §1
# [12] = target: Neu5Ac(a2-6)Gal(b1-4)GlcNAc(b1-3)Gal(b1-3)GlcNAc
# Procedure, shortened: as §1
# [13] = target: Neu5Ac(a2-6)Gal(b1-4)GlcNAc(b1-3)Gal(b1-4)GlcNAc
# Procedure, shortened: as §1
# [14] = target: Neu5Ac(a2-6)Gal(b1-4)GlcNAc(b1-3)Gal(b1-4)GlcNAc(b1-2)Man(a1-3)[Neu5Ac(a2-6)Gal(b1-4)GlcNAc(b1-3)Gal(b1-4)GlcNAc(b1-2)Man(a1-6)]GalNAc
# Procedure, shortened: as §1
# [15] = target: Neu5Ac(a2-6)Gal(b1-4)GlcNAc(b1-3)Gal(b1-4)GlcNAc(b1-3)Gal(b1-4)GlcNAc
# Procedure, shortened: as §1
# [16] = target: Neu5Ac(a2-6)Gal(b1-4)GlcNAc(b1-3)Gal(b1-4)GlcNAc(b1-3)Gal(b1-4)GlcNAc(b1-2)Man(a1-3)[Neu5Ac(a2-6)Gal(b1-4)GlcNAc(b1-3)Gal(b1-4)GlcNAc(b1-3)Gal(b1-4)GlcNAc(b1-2)Man(a1-6)]GalNAc
# Procedure, shortened: as §1
# [17] = target: Neu5Ac(a2-6)Gal(b1-4)GlcNAc(b1-3)Gal(b1-4)GlcNAc(b1-3)GalNAc
# Procedure, shortened: as §1
# [18] = target: Neu5Ac(a2-6)Gal(b1-4)GlcNAc(b1-3)Gal(b1-4)GlcNAc(b1-3)[Neu5Ac(a2-6)Gal(b1-4)GlcNAc(b1-3)Gal(b1-4)GlcNAc(b1-6)]GalNAc
# Procedure, shortened: as §1
# [19] = target: Neu5Ac(a2-6)Gal(b1-4)GlcNAc(b1-3)Gal(b1-4)GlcNAc(b1-6)[Gal(b1-3)]GalNAc
# Procedure, shortened: as §1
# [20] = target: Neu5Ac(a2-6)Gal(b1-4)GlcNAc(b1-3)Gal(b1-4)[Fuc(a1-3)]GlcNAc(b1-3)Gal(b1-4)[Fuc(a1-3)]GlcNAc
# Procedure, shortened: as §1
# [21] = target: Neu5Ac(a2-6)Gal(b1-4)GlcNAc(b1-3)GalNAc
# Procedure, shortened: as §1
# [22] = target: Neu5Ac(a2-6)Gal(b1-4)GlcNAc(b1-3)[Neu5Ac(a2-6)Gal(b1-4)GlcNAc(b1-6)]GalNAc
# Procedure, shortened: as §1
# [23] = target: Neu5Ac(a2-6)Gal(b1-4)GlcNAc(b1-6)GalNAc
# Procedure, shortened: as §1
# [24] = target: Neu5Ac(a2-6)Gal(b1-4)GlcNAc(b1-6)[Gal(b1-3)GlcNAc(b1-3)]Gal(b1-4)Glc
# Procedure, shortened: as §1
# [25] = target: Neu5Ac(a2-6)Gal(b1-4)GlcNAc(b1-6)[Gal(b1-3)]GalNAc
# Procedure, shortened: as §1
# [26] = target: Neu5Ac(a2-6)Gal(b1-4)GlcNAc6S
# Procedure, shortened: as §1
# Neu5Ac(a2-6)GalNAc = target: Neu5Ac(a2-6)GalNAc
# Procedure, shortened: as §1
# [27] = target: Neu5Ac(a2-6)GalNAc(b1-4)GlcNAc
# Procedure, shortened: as §1
# [28] = target: Neu5Ac(a2-6)GalNAc(b1-4)GlcNAc6S
# Procedure, shortened: as §1
# [29] = target: Neu5Ac(a2-6)GlcNAc(b1-4)GlcNAc
# Procedure, shortened: as §1
# [30] = target: Neu5Ac(a2-6)GlcNAc(b1-4)GlcNAc(b1-4)GlcNAc
# Procedure, shortened: as §1
binder,measurement,setting,value
B1,glycan array binding signal (z-score),[1],-0.306
same,glycan array binding signal (z-score),[2],-0.309
same,glycan array binding signal (z-score),[3],-0.367
same,glycan array binding signal (z-score),[4],-0.252
same,glycan array binding signal (z-score),[5],-0.124
same,glycan array binding signal (z-score),[6],-0.298
same,glycan array binding signal (z-score),[7],-0.223
same,glycan array binding signal (z-score),[8],-0.265
same,glycan array binding signal (z-score),[9],-0.023
same,glycan array binding signal (z-score),[10],0.085
same,glycan array binding signal (z-score),[11],0.22
same,glycan array binding signal (z-score),[12],-0.551
same,glycan array binding signal (z-score),[13],-0.523
same,glycan array binding signal (z-score),[14],-0.374
same,glycan array binding signal (z-score),[15],-0.188
same,glycan array binding signal (z-score),[16],-0.211
same,glycan array binding signal (z-score),[17],-0.327
same,glycan array binding signal (z-score),[18],-0.11
same,glycan array binding signal (z-score),[19],0.175
same,glycan array binding signal (z-score),[20],-0.179
same,glycan array binding signal (z-score),[21],0.16
same,glycan array binding signal (z-score),[22],0.46
same,glycan array binding signal (z-score),[23],0.131
same,glycan array binding signal (z-score),[24],0.104
same,glycan array binding signal (z-score),[25],-0.158
same,glycan array binding signal (z-score),[26],0.697
same,glycan array binding signal (z-score),Neu5Ac(a2-6)GalNAc,-0.373
same,glycan array binding signal (z-score),[27],-0.596
same,glycan array binding signal (z-score),[28],-0.062
same,glycan array binding signal (z-score),[29],-0.275
same,glycan array binding signal (z-score),[30],-0.589
